Measurements: the supplement of paper PMC8728848
This is one part of the list.

Key:
Test in all cases: glycan array binding signal (z-score within array); higher = stronger binding
Settings in all cases: glycan notation: IUPAC condensed, linker removed
[1] = target: Neu5Ac(a2-3)Gal(b1-3)[Fuc(a1-4)]GlcNAc
Procedure, shortened: (§1)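 From the Consortium for Functional Glycomics database, 3228 arrays were curated, keeping only those whose protein sequence was available. Binding is given as a within-array Z-score averaged across arrays sharing a protein sequence and across linkers. Negative Z-scores can be read as non-binding.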

[2] = target: Neu5Ac(a2-3)Gal(b1-3)[Fuc(a1-4)]GlcNAc(b1-3)Gal(b1-3)[Fuc(a1-4)]GlcNAc
Procedure, shortened: as §1

[3] = target: Neu5Ac(a2-3)Gal(b1-3)[Fuc(a1-4)]GlcNAc(b1-3)Gal(b1-4)[Fuc(a1-3)]GlcNAc
Procedure, shortened: as §1

[4] = target: Neu5Ac(a2-3)Gal(b1-3)[GlcNAc(b1-6)]GalNAc
Procedure, shortened: as §1

[5] = target: Neu5Ac(a2-3)Gal(b1-3)[Neu5Ac(a2-6)]GalNAc
Procedure, shortened: as §1

[6] = target: Neu5Ac(a2-3)Gal(b1-3)[Neu5Ac(a2-6)]GlcNAc(b1-3)[Fuc(a1-3)[Gal(b1-4)]GlcNAc(b1-6)]Gal(b1-4)Glc
Procedure, shortened: as §1

[7] = target: Neu5Ac(a2-3)Gal(b1-3)]Neu5Ac(a2-3)Gal(b1-4)]GlcNAc
Procedure, shortened: as §1

Neu5Ac(a2-3)Gal(b1-4)Glc = target: Neu5Ac(a2-3)Gal(b1-4)Glc
Procedure, shortened: as §1

[8] = target: Neu5Ac(a2-3)Gal(b1-4)GlcNAc
Procedure, shortened: as §1

[9] = target: Neu5Ac(a2-3)Gal(b1-4)GlcNAc(b1-2)Man
Procedure, shortened: as §1

[10] = target: Neu5Ac(a2-3)Gal(b1-4)GlcNAc(b1-2)Man(a1-3)[GlcNAc(b1-4)][Neu5Ac(a2-3)Gal(b1-4)GlcNAc(b1-2)Man(a1-6)]Man(b1-4)GlcNAc(b1-4)GlcNAc
Procedure, shortened: as §1

[11] = target: Neu5Ac(a2-3)Gal(b1-4)GlcNAc(b1-2)Man(a1-3)[Neu5Ac(a2-3)Gal(b1-4)GlcNAc(b1-2)Man(a1-6)]Man(b1-4)GlcNAc(b1-4)GlcNAc
Procedure, shortened: as §1

[12] = target: Neu5Ac(a2-3)Gal(b1-4)GlcNAc(b1-2)Man(a1-3)[Neu5Ac(a2-3)Gal(b1-4)GlcNAc(b1-2)Man(a1-6)]Man(b1-4)GlcNAc(b1-4)[Fuc(a1-6)]GlcNAc
Procedure, shortened: as §1

[13] = target: Neu5Ac(a2-3)Gal(b1-4)GlcNAc(b1-2)Man(a1-3)[Neu5Ac(a2-6)Gal(b1-4)GlcNAc(b1-2)Man(a1-6)]Man(b1-4)GlcNAc(b1-4)GlcNAc
Procedure, shortened: as §1

[14] = target: Neu5Ac(a2-3)Gal(b1-4)GlcNAc(b1-2)[Neu5Ac(a2-3)Gal(b1-4)GlcNAc(b1-4)]Man(a1-3)[GlcNAc(b1-4)][Neu5Ac(a2-3)Gal(b1-4)GlcNAc(b1-2)[Neu5Ac(a2-3)Gal(b1-4)GlcNAc(b1-6)]Man(a1-6)]Man(b1-4)GlcNAc(b1-4)GlcNAc
Procedure, shortened: as §1

[15] = target: Neu5Ac(a2-3)Gal(b1-4)GlcNAc(b1-2)[Neu5Ac(a2-3)Gal(b1-4)GlcNAc(b1-4)]Man(a1-3)[GlcNAc(b1-4)][Neu5Ac(a2-3)Gal(b1-4)GlcNAc(b1-4)Man(a1-6)]Man(b1-4)GlcNAc(b1-4)GlcNAc
Procedure, shortened: as §1

[16] = target: Neu5Ac(a2-3)Gal(b1-4)GlcNAc(b1-2)[Neu5Ac(a2-3)Gal(b1-4)GlcNAc(b1-6)]Man(a1-6)[Neu5Ac(a2-3)Gal(b1-4)GlcNAc(b1-2)Man(a1-3)]Man(b1-4)GlcNAc(b1-4)GlcNAc
Procedure, shortened: as §1

[17] = target: Neu5Ac(a2-3)Gal(b1-4)GlcNAc(b1-2)[Neu5Ac(a2-3)Gal(b1-4)GlcNAc(b1-6)]Man(a1-6)[Neu5Ac(a2-3)Gal(b1-4)GlcNAc(b1-2)Man(a1-3)][GlcNAc(b1-4)]Man(b1-4)GlcNAc(b1-4)GlcNAc
Procedure, shortened: as §1

[18] = target: Neu5Ac(a2-3)Gal(b1-4)GlcNAc(b1-3)Gal
Procedure, shortened: as §1

[19] = target: Neu5Ac(a2-3)Gal(b1-4)GlcNAc(b1-3)Gal(b1-3)GlcNAc
Procedure, shortened: as §1

[20] = target: Neu5Ac(a2-3)Gal(b1-4)GlcNAc(b1-3)Gal(b1-4)GlcNAc
Procedure, shortened: as §1

[21] = target: Neu5Ac(a2-3)Gal(b1-4)GlcNAc(b1-3)Gal(b1-4)GlcNAc(b1-2)Man(a1-3)[Neu5Ac(a2-3)Gal(b1-4)GlcNAc(b1-3)Gal(b1-4)GlcNAc(b1-2)Man(a1-6)]Man(b1-4)GlcNAc(b1-4)GlcNAc
Procedure, shortened: as §1

[22] = target: Neu5Ac(a2-3)Gal(b1-4)GlcNAc(b1-3)Gal(b1-4)GlcNAc(b1-3)Gal(b1-4)GlcNAc
Procedure, shortened: as §1

[23] = target: Neu5Ac(a2-3)Gal(b1-4)GlcNAc(b1-3)Gal(b1-4)GlcNAc(b1-3)Gal(b1-4)GlcNAc(b1-2)Man(a1-3)[Neu5Ac(a2-3)Gal(b1-4)GlcNAc(b1-3)Gal(b1-4)GlcNAc(b1-3)Gal(b1-4)GlcNAc(b1-2)Man(a1-6)]GalNAc
Procedure, shortened: as §1

[24] = target: Neu5Ac(a2-3)Gal(b1-4)GlcNAc(b1-3)Gal(b1-4)GlcNAc(b1-3)GalNAc
Procedure, shortened: as §1

[25] = target: Neu5Ac(a2-3)Gal(b1-4)GlcNAc(b1-3)Gal(b1-4)GlcNAc(b1-3)[Neu5Ac(a2-3)Gal(b1-4)GlcNAc(b1-3)Gal(b1-4)GlcNAc(b1-6)]GalNAc
Procedure, shortened: as §1

[26] = target: Neu5Ac(a2-3)Gal(b1-4)GlcNAc(b1-3)Gal(b1-4)GlcNAc(b1-6)[Gal(b1-3)]GalNAc
Procedure, shortened: as §1

[27] = target: Neu5Ac(a2-3)Gal(b1-4)GlcNAc(b1-3)Gal(b1-4)[Fuc(a1-3)]GlcNAc
Procedure, shortened: as §1

[28] = target: Neu5Ac(a2-3)Gal(b1-4)GlcNAc(b1-3)GalNAc
Procedure, shortened: as §1

[29] = target: Neu5Ac(a2-3)Gal(b1-4)GlcNAc(b1-3)[Neu5Ac(a2-3)Gal(b1-4)GlcNAc(b1-6)]GalNAc
Procedure, shortened: as §1

B1: GS7807E-bfa-538-23-538 (Bacteroides fragilis) (protein)
chain: TDSFESFNTNEAGFDNDSKKQDFNYYGIPLGIIQQGIYFNYDWGSGKNWPFQTMQNLGADLFSGYVHDFNPFNEGKNNSTYYMMDGWNGSTWDNTYGYIMPEVQKSETINEKDNIGFFGITKILKVELMHRLSDLYGPIVYTQFGSKTGSTPDTQQEAYKAFFNDLDTGIAKIREYQKANPDIESFAKFDILMPQGKRTFSEWIRFANSLRLRLAVRIAMADSKLAVAEAQKALTDEEGLLEGNDEVVAVSTSSGYTNPFGEINKAWGEVFMNANMESLLVGYEDPRMEKYFDKATGSDATSLIDYKGTYKGIRQGTGFSHKNYNGHSKSTITQQTDAVLMTPAEVWFLRAEAALRGWSSESVKDCYEKGVKASFAQWGAAGAEAYLESDRKPSDYVDAFKAANNVKAVNTLTPKWDDAAGNEDKLGRIITQKWLAMFPEGGEAWAEQRRTGYPRLFPVLVNQSEGTVDTNLGPRRLNFFVGIKTTNPEQYTQLVNALGGIDNCGTRLWWDTGRNF
glycan array binding signal (z-score) [1]: -0.626
glycan array binding signal (z-score) [2]: -0.598
glycan array binding signal (z-score) [3]: -0.149
glycan array binding signal (z-score) [4]: -0.632
glycan array binding signal (z-score) [5]: -0.384
glycan array binding signal (z-score) [6]: -0.689
glycan array binding signal (z-score) [7]: -0.639
glycan array binding signal (z-score) (Neu5Ac(a2-3)Gal(b1-4)Glc): -0.639
glycan array binding signal (z-score) [8]: -0.664
glycan array binding signal (z-score) [9]: 2.92
glycan array binding signal (z-score) [10]: -0.689
glycan array binding signal (z-score) [11]: -0.673
glycan array binding signal (z-score) [12]: -0.302
glycan array binding signal (z-score) [13]: -0.132
glycan array binding signal (z-score) [14]: -0.734
glycan array binding signal (z-score) [15]: -0.714
glycan array binding signal (z-score) [16]: 0.242
glycan array binding signal (z-score) [17]: -0.676
glycan array binding signal (z-score) [18]: -0.716
glycan array binding signal (z-score) [19]: -0.667
glycan array binding signal (z-score) [20]: -0.707
glycan array binding signal (z-score) [21]: -0.106
glycan array binding signal (z-score) [22]: -0.66
glycan array binding signal (z-score) [23]: -0.121
glycan array binding signal (z-score) [24]: -0.693
glycan array binding signal (z-score) [25]: 0.002
glycan array binding signal (z-score) [26]: -0.401
glycan array binding signal (z-score) [27]: -0.663
glycan array binding signal (z-score) [28]: -0.711
glycan array binding signal (z-score) [29]: -0.675
